The other results are listed elsewhere or left out. At the low end of the ranking the order means little.

This assay deals with SIX1 homeodomain (reference allele) (UniProt Q15475). Description: universal protein binding microarray. The note with it: Universal all-10-mer PBM (8x60K, AMADID 030236), 300 nM GST-tagged protein, Alexa Fluor 488 anti-GST; buffer, salt, pH and temperature not stated; high values mean tight binding; most listed sequences are background and not binding sites; double strand, one strand shown.
On to CCCGCCCA, for which the binding signal amounted to 0.0698 E-score. As for CTATACGA, the binding signal worked out at 0.18 E-score. For CACCAGTC the value was -0.0772 E-score; for CGTGACTC, -0.231 E-score; for CAAGCTAC, -0.0824 E-score. For GTGAGAGA the value was -0.0326 E-score; for AACATTTG, -0.251 E-score. For GACCCAAC the value was -0.144 E-score; for GCTGGAGA, -0.0773 E-score; for ATGACGTC, 0.0387 E-score. Take AAACCAGA: the binding signal was found to be 0.104 E-score.

In the case of AGTCAAAA, the binding signal is -0.236 E-score. For GATTCCGC the value was -0.00161 E-score. For GAGTCATA the value was 0.0868 E-score; for CAATAGAC, -0.131 E-score.

In the case of GCTCTACC, the binding signal was -0.182 E-score. For ACATGTGG the value was -0.133 E-score; for TAAGCTAA, -0.0876 E-score; for ATGCTACA, -0.0248 E-score. Consider GAAATAAA, for which the binding signal was -0.0748 E-score. For the sequence ATAGCTGC, the binding signal amounted to 0.118 E-score.

For CGTGGCAG, the binding signal is -0.222 E-score. For GGTCGTAC the value was -0.0215 E-score; for CAACACCC, 0.24 E-score; for ATCTGGTC, 0.121 E-score. For GAAGCTCC the value was -0.205 E-score; for ATTAAAAA, -0.0117 E-score.

Turning to ATTGTGGA, the binding signal came out at 0.196 E-score. Consider TAGTGAGA, for which the binding signal came out at 0.203 E-score. On to ATCTTAAA, for which the binding signal is -0.0453 E-score. For AACGTCTT the value was -0.215 E-score; for ACGGTCTG, -0.0678 E-score; for CTACGTTC, -0.276 E-score. For GATGCGAA the value was -0.12 E-score; for CGACGTAA, -0.104 E-score; for AAAAGGAC, -0.317 E-score.

Consider AAATCTCA, for which the binding signal is -0.065 E-score. For ATATACTA the value was 0.256 E-score.

Take CATAAACA: the binding signal was -0.134 E-score. For CTGGAGGC the value was -0.134 E-score; for CTTGACGC, -0.132 E-score.

As to GAATATTA, the binding signal amounted to 0.104 E-score. For AAAAGGCT the value was -0.0604 E-score; for GTGCCCGA, 0.0238 E-score.

As to ATGTCCGG, the binding signal is -0.139 E-score. For AGCATAAA the value was -0.178 E-score; for CAGGGCCG, -0.14 E-score; for AGGCCAAG, -0.118 E-score. Regarding CCTGACTC, the binding signal was -0.207 E-score.

Turning to CCGAGGAA, the binding signal is -0.0467 E-score.

As to AGTCAAAT, the binding signal was -0.193 E-score.

ATTGTGTG: the binding signal was 0.0142 E-score. For CCTGAATC the value was 0.0856 E-score; for GAGGTCTA, -0.00498 E-score; for ACCTGGAA, -0.0904 E-score. For AACATACG the value was 0.0216 E-score. For CAACCGTA the value was -0.247 E-score. For CCCTTGAG, the binding signal came to 0.0543 E-score. GGAGTGAC: the binding signal is -0.104 E-score. As for ATTGGACC, the binding signal was -0.028 E-score.

Regarding AGCTATTA, the binding signal is -0.0731 E-score. For ATCCGCGG the value was 0.305 E-score. Consider GCATTGCA, for which the binding signal was -0.0415 E-score.

For AAAATAAA, the binding signal was -0.209 E-score.

Consider GGACTAAC, for which the binding signal is -0.288 E-score. Consider GCCCTGAA, for which the binding signal is -0.225 E-score. For CCTTAAGC the value was -0.11 E-score. For GCCAATCC the value was 0.111 E-score; for CTCAGATA, 0.31 E-score; for CGTAGCGA, 0.0205 E-score. For TATTCTCA the value was 0.19 E-score; for GTACTAGA, -0.0126 E-score; for CATCGCGG, -0.0658 E-score. With AACGCCGG, the binding signal is -0.11 E-score. For CTATAGAC the value was -0.0375 E-score. For CCACGCAC the value was -0.177 E-score; for ACAACAAT, 0.029 E-score; for GCACGACC, 0.121 E-score. For GGGTGCAA the value was 0.144 E-score; for AGGTAATG, -0.208 E-score. Turning to CTAGTCTC, the binding signal is -0.137 E-score. For ATAGTCGC the value was 0.0924 E-score. For GCGGGGGA the value was 0.227 E-score; for TCGGTTCA, 0.0327 E-score.

As for CTGCATCA, the binding signal stood at 0.0374 E-score. For ACTTACAG the value was -0.0465 E-score; for ATACGAGC, 0.23 E-score; for ACCATACC, 0.154 E-score. For TCTACCCA the value was 0.221 E-score.

On to ACTATCTC, for which the binding signal came out at 0.209 E-score. Turning to GATTCTAC, the binding signal was determined as 0.139 E-score. For GACTGTCA the value was -0.238 E-score. For GCGGGCCC, the binding signal is -0.361 E-score. With GTCAAAGA, the binding signal was -0.183 E-score. For AGTCGAAG the value was -0.135 E-score. For GACTTTCC the value was -0.221 E-score; for GGAAGTGA, 0.134 E-score; for CGGCCAAG, -0.223 E-score. For CTCGTAAG the value was -0.0564 E-score; for ACCCAAAC, 0.0551 E-score; for CGCAATTA, -0.158 E-score. Regarding TGGACCCA, the binding signal is -0.173 E-score. For ATGCCCAT the value was 0.142 E-score. For ATCAGTAC the value was 0.224 E-score; for AGCAGTTA, -0.216 E-score. For ATTATGAC the value was -0.0338 E-score. Turning to GGGGTGGA, the binding signal turned out to be 0.0103 E-score.

As to ACCCACTG, the binding signal is -0.0215 E-score. CACATCCC: the binding signal was found to be 0.0267 E-score.

With ATCCCGCG, the binding signal is 0.323 E-score. For GTGAGTCA the value was -0.332 E-score. For ACGCCTGA the value was 0.0439 E-score; for GAAGCCCA, -0.158 E-score; for AACGTCGC, -0.238 E-score. For ATGAACCA, the binding signal is 0.0508 E-score.

Consider ATATAAAG, for which the binding signal came to 0.154 E-score. With AAATGACT, the binding signal was -0.271 E-score. For AAACATCT the value was -0.302 E-score. For ATTGATTA the value was 0.00338 E-score; for ATCAGTGC, 0.0879 E-score. For TATCAATA the value was 0.407 E-score. In the case of ATCGGGAG, the binding signal turned out to be 0.127 E-score. Regarding CCTGGAAA, the binding signal is -0.351 E-score. For the sequence AACGATGG, the binding signal was -0.123 E-score. As for AAATACCG, the binding signal was determined as 0.178 E-score. For ATAACATA the value was 0.0247 E-score; for ATATGGTG, 0.362 E-score. For TTCGTAAA the value was -0.198 E-score; for AGCCTTTG, -0.0186 E-score; for ATGTTAAA, -0.21 E-score. For GTGCACTA the value was -0.0712 E-score; for GTGACAGA, -0.127 E-score.

On to ATCCAGAG, for which the binding signal was determined as 0.304 E-score. With GTAACTAC, the binding signal is -0.0994 E-score. For CATCCGGC the value was 0.226 E-score. For CCGAGGCC the value was -0.00378 E-score; for GCGCAGAC, -0.204 E-score.

Consider AGATTTAT, for which the binding signal came to 0.0465 E-score.

In the case of AAAATGAA, the binding signal was -0.202 E-score. With ACAGACTG, the binding signal was -0.126 E-score.

Take AACCCTTA: the binding signal is -0.101 E-score. For GCTCTCAC the value was -0.102 E-score; for CAGCTTGG, -0.14 E-score. As to TGGTGACA, the binding signal worked out at 0.156 E-score. For TATAGTAA the value was 0.0109 E-score. Consider CAGCGAGA, for which the binding signal was 0.0719 E-score.

For ACAATAAG, the binding signal amounted to 0.0839 E-score. AATTGTTA: the binding signal is -0.208 E-score.

As for CATACAGC, the binding signal was -0.215 E-score. For TTAAGTAA, the binding signal came out at 0.0754 E-score.

Turning to AAGGGTGA, the binding signal came to 0.21 E-score. For CAACGGGC the value was -0.242 E-score.

Regarding AAAGCAAA, the binding signal is -0.224 E-score. For CTACCGCC the value was -0.176 E-score; for GACCGCTC, -0.262 E-score; for CCCGTTCA, -0.0331 E-score.

As for GATAATCC, the binding signal amounted to 0.34 E-score. Turning to GCCTAAAC, the binding signal is -0.153 E-score. With ATCCGTGA, the binding signal was 0.327 E-score. Take GGCCATCA: the binding signal was -0.197 E-score. For CGGGAAAG the value was -0.114 E-score; for AGTGCGGA, 0.044 E-score; for ACTGTTGC, -0.217 E-score. For AAGAGCCT the value was -0.103 E-score; for CGCTACCG, -0.152 E-score; for AGAAGTGA, 0.0694 E-score. AGAGGGAT: the binding signal was 0.308 E-score. For CTGACAGC the value was -0.192 E-score; for ACCAATGA, -0.00671 E-score; for CATGTAGC, -0.0701 E-score. For CTCGAGGC the value was -0.0609 E-score. As for CTCACTGC, the binding signal was 0.0968 E-score.

As to AGGGTACC, the binding signal worked out at 0.00996 E-score. As to CGGGTTGC, the binding signal was -0.0248 E-score. Take AATCACGC: the binding signal is -0.19 E-score. For CGGCCCAG the value was -0.271 E-score; for AGCGGACC, -0.271 E-score; for AAGGTAGG, 0.123 E-score. For AAATGCTC the value was -0.349 E-score; for CGGCCTCC, -0.11 E-score. For CGCACCTC the value was -0.105 E-score; for CTAATATC, 0.339 E-score.

Take CTGTCAAC: the binding signal is -0.123 E-score. For ATCTCAAT the value was 0.183 E-score.

On to ATTTCCCC, for which the binding signal was -0.116 E-score.

Turning to ATGAAATC, the binding signal was -0.132 E-score. For AAGGGATT the value was 0.188 E-score; for AGTGATGA, 0.0123 E-score. For TACCCTCA the value was 0.118 E-score. With CCTACCCG, the binding signal was determined as 0.0727 E-score. For CCCGTGGC the value was 0.0561 E-score; for TATTGAAA, -0.044 E-score; for ACAATTAC, -0.157 E-score.

Consider ATCTAGAA, for which the binding signal is 0.109 E-score. For CGATTCGA the value was 0.0128 E-score; for CGATATTC, 0.317 E-score; for AATTTGGT, -0.248 E-score. For GATAGACC the value was 0.0784 E-score; for CCAACATC, 0.0858 E-score; for CCAGGCCC, -0.167 E-score. For AGAACTGC the value was -0.125 E-score; for ACAAGGCC, -0.301 E-score. With ATCGCAAG, the binding signal came to 0.115 E-score.

As for ACCACATA, the binding signal stood at 0.145 E-score.

Take GGTTTACA: the binding signal was determined as 0.0179 E-score. For CAGGGGTC the value was 0.113 E-score; for TATGGGAA, -0.00618 E-score; for ATTTATCG, -0.0822 E-score. For AATCTCAA the value was 0.0868 E-score; for GACGCGTA, 0.0684 E-score. For CCAAAATC the value was -0.165 E-score; for AAGCACCT, -0.0882 E-score. For CAGGAGTC, the binding signal was -0.0727 E-score. With ACGGGCCA, the binding signal was -0.139 E-score.

ACTCGAAA: the binding signal was -0.0729 E-score. For CTCGTCCA the value was -0.205 E-score.

Take GACACAAA: the binding signal came to 0.0355 E-score. For CGCTCGCA the value was -0.179 E-score; for ATCATCTG, 0.374 E-score.

The values are drawn from publication PMC10668032.
